Laboratory results from PubChem BioAssay AID1030 (National Center for Advancing Translational Sciences (NCATS), 2008).
About 16,000 (7.3%) of roughly 220,000 compounds were called active. The shares of active, inactive and inconclusive entries below differ from those in the screen. The call rests on the fitted dose curve; in most records, active means well fitted inhibition curve with a large enough effect (not every such curve was filed as active); inconclusive means small, poorly fitted or top-dose-only effect, or another doubt; inactive means no such curve, though single readings can be large or run the other way. No potency is given beside an inconclusive call; the fits are too rough.

What follows are molecules tested against Aldehyde dehydrogenase 1A1 (Homo sapiens) (UniProt P00352) (assay: qHTS Assay for Inhibitors of Aldehyde Dehydrogenase 1 (ALDH1A1)). Conditions: Purified ALDH1A1, NADH fluorescence, propionaldehyde substrate; series mostly up to 75.3 µM.
Potency means the concentration at half of the fitted maximal effect; tags describe the fitted curve by direction and shape.
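Wherever activity, negative = inhibition is given: plate controls were no enzyme wells and a reference inhibitor.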

UniProt P00352, sequence (P00352 whole entry, looked up): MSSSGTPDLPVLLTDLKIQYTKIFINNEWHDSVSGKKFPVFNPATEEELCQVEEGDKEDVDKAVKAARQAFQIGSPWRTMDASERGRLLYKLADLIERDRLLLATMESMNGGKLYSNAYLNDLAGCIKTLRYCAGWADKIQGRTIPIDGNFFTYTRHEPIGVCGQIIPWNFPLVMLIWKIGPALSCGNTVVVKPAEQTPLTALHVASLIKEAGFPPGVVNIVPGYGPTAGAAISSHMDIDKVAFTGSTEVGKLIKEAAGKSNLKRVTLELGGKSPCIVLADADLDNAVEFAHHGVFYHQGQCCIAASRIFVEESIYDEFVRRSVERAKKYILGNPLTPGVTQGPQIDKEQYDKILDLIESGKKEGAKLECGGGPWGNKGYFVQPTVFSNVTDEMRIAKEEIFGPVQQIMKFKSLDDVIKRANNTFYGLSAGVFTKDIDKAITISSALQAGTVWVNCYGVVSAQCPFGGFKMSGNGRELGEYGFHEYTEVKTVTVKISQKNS

Structure (SMILES) | Potency | activity, negative = inhibition
COc1ccc(C(NC(=O)c2c(F)c(F)c(F)c(F)c2F)c2ccccc2)cc1 (stereo unspecified) | inactive | –
Cc1[nH]c2ccccc2c1C1=NNC(=Nc2ccc(F)cc2)SC1 | active: 20 µM | –
Cc1c(Br)c(=O)oc2c(Br)c(O)ccc12 | inconclusive [inhibitor, partial curve] | –
CC(C)(Nc1ccccc1)C(=O)c1ccccc1 | inconclusive [inhibitor, single point] | –
O=C1N2CCSC2=NC1(Nc1ccccn1)C(F)(F)F (stereo unspecified) | inactive | –
NC(=O)Cc1ccc2c(c1)[nH]c1ccccc12 | inconclusive [inhibitor, partial curve] | –
CCCN1C(=O)/C(=N\OCC(=O)Nc2ccc(C(C)C)cc2)c2ccccc21 | active: 0.501 µM | –
COc1ccc2oc(-c3cccc(NC(=O)CSc4ccc(Cl)cc4)c3)nc2c1 | inconclusive [inhibitor, single point] | –
S=C(c1cn(CCOc2ccccc2)c2ccccc12)N1CCCC1 | inactive | –
CCC(C)NC(=O)COC(=O)Cc1sc(N)nc1-c1ccc(C)cc1 (stereo unspecified) | inconclusive [inhibitor, single point] | –
CC(C)CNC(=S)Nc1ccc(Oc2ccccc2)cc1 | inconclusive [inhibitor, single point] | –
COc1cc(C(C(=O)NC2CCCCC2)N(Cc2cccs2)C(=O)Cc2c[nH]c3ccccc23)cc(OC)c1OC (stereo unspecified) | inactive | –
CC(C)Oc1ccc2c3c(c(=O)oc2c1)CCC3 | inconclusive [inhibitor, partial curve] | –
O=C(COc1ccccc1O)N1CCN(C(=O)c2ccco2)CC1 | inactive | –
C(=N\n1cnnc1)/c1ccc(N2CCOCC2)cc1 | inconclusive [inhibitor, single point] | –
COc1ccc(CCNC(=O)C2CCCN(c3ncccn3)C2)cc1 (stereo unspecified) | inconclusive [inhibitor, partial curve] | –
CC(C)CC(C(=O)NC(C)(C)C)N(Cc1cccs1)C(=O)c1snc(C(N)=O)c1N (stereo unspecified) | inconclusive [inhibitor, single point] | –
Cc1ccc(C2C(C(N)=S)=C(N)OC3=C2C(=O)CC(C)(C)C3)cc1 (stereo unspecified) | active: 14.1 µM | –
Fc1ccc(NC(=S)NCCc2ccccc2)c(F)c1F | inconclusive [inhibitor, partial curve] | –
CNC(=O)c1ccc(-c2cc(C(F)(F)F)nn2C)s1 | inconclusive [inhibitor, single point] | –
COc1cc2nc(SCc3ccc(Cl)cc3Cl)n(Cc3cccs3)c(=N)c2cc1OC | inactive | –
CCOC(=O)CC(NC(=O)Cn1nnc(-c2ccccc2F)n1)c1ccccc1Cl (stereo unspecified) | inactive | –
O=c1oc(-c2ccccc2Cl)nc2ccsc12 | inactive | –
CC1CCN(C(=O)CSc2nnc(Cc3cccn3C)n2-c2ccc(F)cc2)CC1 | inconclusive [inhibitor, single point] | –

Structure (SMILES) | Potency | activity, negative = inhibition
CCOC(=O)CC1=C(C#N)C(c2cccnc2)C(C(=O)OCC)=C(N)O1 (stereo unspecified) | inconclusive [inhibitor, single point] | –
CCCOc1ccc(N2C(=O)CC(N3CCN(c4nc5ccccc5s4)CC3)C2=O)cc1 (stereo unspecified) | active: 14.1 µM | –
Cc1nc(Nc2ccc(Cl)cc2)c2nnn(Cc3ccccc3)c2n1 | inconclusive [inhibitor, partial curve] | –
Cc1ccc(C)c(/C=N/n2cc(-c3ccccc3)[nH]c2=S)c1 | inactive | –
O=C(O)CCCCCN1C(=O)C(O)=C(C(=O)/C=C/c2ccccc2)C1c1ccccc1[N+](=O)[O-] (stereo unspecified) | inconclusive [inhibitor, single point] | –
COc1ccccc1/C=C/C=N/n1c(-c2cc(C)[nH]n2)n[nH]c1=S | inconclusive [inhibitor, single point] | –
CC(=O)Nc1ccc2c(c1)nc(CCN1CCC(C)CC1)n2C | inconclusive [inhibitor, partial curve] | –
Cc1cccc(OCC(=O)Nc2nc3ccc([N+](=O)[O-])cc3s2)c1 | inconclusive [inhibitor, partial curve] | –
CCOC(=O)Nc1nc(-c2ccccc2)c(C(=O)c2ccccc2)s1 | inconclusive [inhibitor, partial curve] | –
CCOc1ccc(Br)cc1C(=O)Nc1ccc(C(=O)NCC(C)C)cc1 | inactive | –
CSc1cccc(NC(=O)C2(S(=O)(=O)c3ccc(C)cc3)CC2)c1 | inactive | –
N#Cc1c(NC(=O)CSC2=NCCS2)sc2c1CCCC2 | inconclusive [inhibitor, single point] | –
Cc1ccc(-c2ccc(/C=C3\C(=O)ON=C3c3ccccc3)o2)c([N+](=O)[O-])c1 | active: 8.91 µM | –
C(=C\c1ccco1)/c1nc2ccccc2[nH]1 | inconclusive [inhibitor, full curve] | –
COC(=O)[C@@]1(Cc2ccccc2)[C@H]2c3cc(C(=O)N4CCCC4)n(Cc4cccc5ccccc45)c3C[C@H]2CN1C(=O)c1ccccc1 | inactive | –
COC(=O)c1ccc(NC(=O)Cn2nnc(-c3cccs3)n2)cc1 | inactive | –
CC(=O)c1cccc(NC(=S)NC(=O)c2ccccc2Cl)c1 | inconclusive [inhibitor, single point] | –
O=C1CC(N2CCN(c3ccccc3O)CC2)C(=O)N1Cc1ccccc1 (stereo unspecified) | inconclusive [inhibitor, single point] | –
Nc1c(NCCC2=CCCCC2)c(=O)[nH]c(=O)n1Cc1ccccc1 | inconclusive [inhibitor, partial curve] | –
CN(C)c1ccc(/C=N\NC(=O)CC#N)cc1 | inconclusive [inhibitor, partial curve] | –
CC(=O)c1ccc(N2CCN(C(=O)Nc3ccc(F)cc3)CC2)cc1 | inconclusive [inhibitor, single point] | –
CCc1n[nH]c(=S)n1/N=C/c1cc(OC)cc([N+](=O)[O-])c1O | inconclusive [inhibitor, single point] | –
CC(=O)Nc1nnc(C2=COCCO2)o1 | inconclusive [inhibitor, single point] | –
COC(=O)C1=C(C)N(CCc2ccc(OC)c(OC)c2)C(=O)C1 | inconclusive [inhibitor, single point] | –

Structure (SMILES) | Potency | activity, negative = inhibition
Cc1ccccc1C(=O)O/N=C/c1c(N2CCOCC2)n(C)c2ccccc12 | inconclusive [inhibitor, single point] | –
CN(C)c1ccc(-c2noc(C3CCN(S(=O)(=O)c4cccc(C(=O)O)c4)CC3)n2)cc1 | inconclusive [inhibitor, single point] | –
CC(C)C1=C[C@@]23CC[C@@H]4[C@](C)(CCC[C@@]4(C)C(=O)O)[C@@H]2C[C@@H]1[C@@H](C(=O)O)[C@@H]3C(=O)O | – | inactive: 12.8% [at 13.5 µM]
c1ccc2c(c1)CCN(c1nc3cc4c(cc3s1)OCCO4)C2 | inactive | –
CCCC(=O)N1CCN(c2ccc(NC(=O)c3cc4ccccc4o3)cc2Cl)CC1 | inconclusive [inhibitor, single point] | –
CCc1ccc(CN(C)C(=O)CCc2nc3ccccc3n(-c3ccc(OC)cc3)c2=O)cc1 | inconclusive [inhibitor, single point] | –
Cc1cc2oc(=O)cc(-c3ccccc3)c2c(C)c1-c1cccc(N)c1 | active: 25.1 µM | –
Cc1cccc(NS(=O)(=O)c2ccc3c(c2)OCCO3)c1 | inconclusive [inhibitor, single point] | –
COCc1nnc(NC(=O)CSc2ccccc2)s1 | inactive | –
CCOC(=O)N1CCC(=NNc2ccc(S(=O)(=O)N3CCOCC3)cc2[N+](=O)[O-])CC1 | inconclusive [inhibitor, single point] | –
CCc1c(O)nc(SCC(=O)N2CCOCC2)n(-c2ccccc2)c1=O | inconclusive [inhibitor, single point] | –
CCOC(=O)c1c(-c2ccccc2)oc2ccc(O)c(CN(C)C)c12 | inactive | –
Cc1cccc(C)c1NC(=O)C(c1ccccc1)N1CC(=O)Nc2ccccc21 (stereo unspecified) | inconclusive [inhibitor, single point] | –
CCN1CCN(CCCNC(=O)c2cn(CCOC)c(=O)c3c2c2ccccc2n3C)CC1 | inconclusive [inhibitor, partial curve] | –
O=C(CN1C(=O)C2C3C=CC(C3)C2C1=O)NCc1ccccc1 (stereo unspecified) | inactive | –
c1ccc(CN2CCN(c3nc(-c4ccccc4)nc4ccccc34)CC2)cc1 | inactive | –
O=C(COC(=O)c1ccco1)Nc1nc2ccc([N+](=O)[O-])cc2s1 | inactive | –
Cn1c(C(=O)NCC2CCCO2)cc2oc3ccccc3c21 (stereo unspecified) | inactive | –
Cc1ccc(C(=O)CSc2nnc(-c3cccs3)n2C)o1 | inconclusive [inhibitor, single point] | –
CCN1C/C(=C/c2ccc(OC)c(O)c2)C(=O)/C(=C/c2ccc(OC)c(O)c2)C1 | inactive | –
CSc1ccc(C2c3[nH]c4ccccc4c3CCN2C(=O)c2cc(C)n(C)n2)cc1 (stereo unspecified) | inconclusive [inhibitor, single point] | –
Fc1ccc(-n2c(-c3ccco3)nc3nc4ccccc4nc32)cc1 | inconclusive [inhibitor, full curve] | –
COc1ccc(CCN2CN(S(=O)(=O)c3ccc(OC)cc3)c3nc4ccccc4nc32)cc1 | inconclusive [inhibitor, single point] | –
